In US20040175357A1 (Bayer, published 2004):

T1: intermediate affinity IL-2 receptor IL-2Rβγ on human NK cells (human, UniProt P14784 27-551; P31785 23-369)
T1 sequence (looked up) 1: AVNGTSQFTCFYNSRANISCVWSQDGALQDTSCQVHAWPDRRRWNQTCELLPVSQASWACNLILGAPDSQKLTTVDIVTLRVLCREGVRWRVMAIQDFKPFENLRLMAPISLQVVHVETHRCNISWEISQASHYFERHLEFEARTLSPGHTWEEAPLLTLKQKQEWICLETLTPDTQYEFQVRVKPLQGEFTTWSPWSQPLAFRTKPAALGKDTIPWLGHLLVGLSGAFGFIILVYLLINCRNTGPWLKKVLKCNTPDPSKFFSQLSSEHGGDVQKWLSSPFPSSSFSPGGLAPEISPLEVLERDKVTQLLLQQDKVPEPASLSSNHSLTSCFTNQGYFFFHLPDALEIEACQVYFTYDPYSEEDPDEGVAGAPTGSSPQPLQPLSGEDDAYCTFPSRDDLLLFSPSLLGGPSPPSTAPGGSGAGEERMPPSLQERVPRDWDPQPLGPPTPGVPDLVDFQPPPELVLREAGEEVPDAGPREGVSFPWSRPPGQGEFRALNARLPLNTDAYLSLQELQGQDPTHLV
T1 sequence (looked up) 2: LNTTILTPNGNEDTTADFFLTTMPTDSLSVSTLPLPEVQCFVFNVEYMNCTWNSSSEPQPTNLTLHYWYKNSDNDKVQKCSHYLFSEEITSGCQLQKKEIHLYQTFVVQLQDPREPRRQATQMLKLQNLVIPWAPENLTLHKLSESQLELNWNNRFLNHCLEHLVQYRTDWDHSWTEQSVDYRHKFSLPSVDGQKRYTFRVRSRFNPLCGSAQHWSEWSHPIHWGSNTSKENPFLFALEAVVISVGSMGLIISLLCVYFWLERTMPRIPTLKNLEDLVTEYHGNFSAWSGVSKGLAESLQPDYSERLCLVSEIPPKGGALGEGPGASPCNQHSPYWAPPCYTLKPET

T2: high affinity IL-2 receptor IL-2Rαβγ on human PHA-blasts (activated T cells) (human, UniProt P01589 22-272; P14784 27-551; P31785 23-369)
T2 sequence (looked up) 1: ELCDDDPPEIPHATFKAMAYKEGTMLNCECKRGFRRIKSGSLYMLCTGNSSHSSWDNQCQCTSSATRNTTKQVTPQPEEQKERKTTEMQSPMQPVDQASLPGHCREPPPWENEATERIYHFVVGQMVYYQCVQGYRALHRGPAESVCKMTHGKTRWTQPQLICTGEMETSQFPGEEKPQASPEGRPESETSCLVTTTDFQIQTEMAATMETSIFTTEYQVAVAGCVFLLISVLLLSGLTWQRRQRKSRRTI
T2 sequence (looked up) 2: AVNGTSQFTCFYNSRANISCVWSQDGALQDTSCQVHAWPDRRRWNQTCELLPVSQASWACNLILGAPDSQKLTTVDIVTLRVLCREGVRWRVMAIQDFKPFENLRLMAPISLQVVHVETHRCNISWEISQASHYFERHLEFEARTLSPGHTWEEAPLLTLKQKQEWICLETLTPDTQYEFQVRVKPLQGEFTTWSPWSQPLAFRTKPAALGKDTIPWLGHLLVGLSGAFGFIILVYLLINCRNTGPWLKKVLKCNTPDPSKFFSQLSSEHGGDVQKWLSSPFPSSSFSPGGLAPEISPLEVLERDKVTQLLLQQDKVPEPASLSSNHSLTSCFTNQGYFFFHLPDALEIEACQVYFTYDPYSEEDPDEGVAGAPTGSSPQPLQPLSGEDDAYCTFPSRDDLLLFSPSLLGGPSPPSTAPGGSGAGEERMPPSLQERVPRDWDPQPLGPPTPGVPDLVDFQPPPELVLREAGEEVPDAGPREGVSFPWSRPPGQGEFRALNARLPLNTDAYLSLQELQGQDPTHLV
T2 sequence (looked up) 3: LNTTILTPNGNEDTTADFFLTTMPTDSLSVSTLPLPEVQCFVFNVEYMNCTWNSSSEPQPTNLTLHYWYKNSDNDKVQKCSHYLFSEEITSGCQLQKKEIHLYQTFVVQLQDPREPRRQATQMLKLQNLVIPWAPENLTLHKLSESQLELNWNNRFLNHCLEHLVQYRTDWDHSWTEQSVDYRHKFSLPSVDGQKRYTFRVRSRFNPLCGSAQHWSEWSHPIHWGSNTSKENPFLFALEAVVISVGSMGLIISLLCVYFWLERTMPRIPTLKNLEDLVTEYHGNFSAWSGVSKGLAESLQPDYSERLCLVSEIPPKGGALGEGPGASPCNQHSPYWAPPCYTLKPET


Assays:
Assay in all cases: cell-based or functional assay
[1] = molecular target: T1, intermediate affinity IL-2 receptor …
[2] = molecular target: T2, high affinity IL-2 receptor IL-2Rαβγ on …
[3] = molecular target: T1, intermediate affinity IL-2 receptor …; remark: listed apart in the source
[4] = molecular target: T2, high affinity IL-2 receptor IL-2Rαβγ on …; remark: listed apart in the source

Binder	relative activity, NK cell (NK cell proliferation) [1]	relative activity, T cell (PHA-blast proliferation) [2]	EC50, 50% maximal proliferation, NK cell assay (FIG. 1B) [3] [nM]	EC50, 50% maximal proliferation, NK cell assay (FIG. 5B) [3] [nM]	EC50, 50% maximal proliferation, T cell assay (FIG. 1A) [4] [nM]	EC50, 50% maximal proliferation, T cell assay (FIG. 5A) [4] [nM]
human IL-2 mutein N88E (ligand) not shown	0.00115 relative to wt IL-2 (EC50)	0.0117 relative to wt IL-2 (EC50)				
human IL-2 mutein Q126A (ligand) not shown	0.0581 relative to wt IL-2 (EC50)	0.0174 relative to wt IL-2 (EC50)				
human IL-2 mutein N88A (ligand) not shown	0.01 relative to wt IL-2 (EC50)	0.5 relative to wt IL-2 (EC50)				
human IL-2 mutein D20A (ligand) not shown	5e-05 relative to wt IL-2 (EC50)	0.00024 relative to wt IL-2 (EC50)				
human IL-2 mutein N88F (ligand) not shown	0.001 relative to wt IL-2 (EC50)	0.0222 relative to wt IL-2 (EC50)				
human IL-2 mutein N88M (ligand) not shown	0.001 relative to wt IL-2 (EC50)	0.25 relative to wt IL-2 (EC50)				
human IL-2 mutein N88L (ligand) not shown	0.001 relative to wt IL-2 (EC50)	0.004 relative to wt IL-2 (EC50)				
human IL-2 mutein D20S (ligand) not shown	0.00038 relative to wt IL-2 (EC50)	0.0664 relative to wt IL-2 (EC50)				
human IL-2 mutein N88W (ligand) not shown	0.001 relative to wt IL-2 (EC50)	0.001 relative to wt IL-2 (EC50)				
human IL-2 mutein N88S (ligand) not shown	0.16 relative to wt IL-2 (EC50)					
human IL-2 mutein Q126F (ligand) not shown	0.0275 relative to wt IL-2 (EC50)	0.874 relative to wt IL-2 (EC50)				
human IL-2 mutein D20Y (ligand) not shown	7e-05 relative to wt IL-2 (EC50)	0.0659 relative to wt IL-2 (EC50)				
human IL-2 mutein N88T (ligand) not shown	0.00127 relative to wt IL-2 (EC50)	0.5 relative to wt IL-2 (EC50)				
human IL-2 mutein N88V (ligand) not shown	0.001 relative to wt IL-2 (EC50)	0.0667 relative to wt IL-2 (EC50)				
human IL-2 mutein Q126D (ligand) not shown	0.00061 relative to wt IL-2 (EC50)	0.146 relative to wt IL-2 (EC50)				
human IL-2 mutein D20M (ligand) not shown	0.00011 relative to wt IL-2 (EC50)	0.0537 relative to wt IL-2 (EC50)				
human IL-2 mutein D20T (ligand) not shown	1 relative to wt IL-2 (EC50)	1 relative to wt IL-2 (EC50)				
human IL-2 mutein D20N (ligand) not shown	0.00019 relative to wt IL-2 (EC50)	0.03 relative to wt IL-2 (EC50)				
human IL-2 mutein N88K (ligand) not shown	0.00032 relative to wt IL-2 (EC50)	0.0001 relative to wt IL-2 (EC50)				
human IL-2 mutein D20R (ligand) not shown	1e-05 relative to wt IL-2 (EC50)	0.00018 relative to wt IL-2 (EC50)				
human IL-2 mutein D20H (ligand) not shown	9e-05 relative to wt IL-2 (EC50)	0.371 relative to wt IL-2 (EC50)	> 10000		~0.2	
human IL-2 mutein N88Y (ligand) not shown	0.001 relative to wt IL-2 (EC50)	0.008 relative to wt IL-2 (EC50)				
human IL-2 mutein N88H (ligand) not shown	0.001 relative to wt IL-2 (EC50)	0.001 relative to wt IL-2 (EC50)				
human IL-2 mutein D20L (ligand) not shown	1e-05 relative to wt IL-2 (EC50)	0.00063 relative to wt IL-2 (EC50)				
human IL-2 mutein D20K (ligand) not shown	0.00019 relative to wt IL-2 (EC50)	0.063 relative to wt IL-2 (EC50)				
human IL-2 mutein D20Q (ligand) not shown	0.00032 relative to wt IL-2 (EC50)	0.0318 relative to wt IL-2 (EC50)				
human IL-2 mutein D20V (ligand) not shown	9e-05 relative to wt IL-2 (EC50)	0.00093 relative to wt IL-2 (EC50)				

Continued, values first:

relative activity, NK cell (NK cell proliferation) [1]	relative activity, T cell (PHA-blast proliferation) [2]	EC50, 50% maximal proliferation, NK cell assay (FIG. 1B) [3] [nM]	EC50, 50% maximal proliferation, NK cell assay (FIG. 5B) [3] [nM]	EC50, 50% maximal proliferation, T cell assay (FIG. 1A) [4] [nM]	EC50, 50% maximal proliferation, T cell assay (FIG. 5A) [4] [nM]	Binder
1 relative to wt IL-2 (EC50)	1 relative to wt IL-2 (EC50)					human IL-2 mutein Q126K (ligand) not shown
0.65 relative to wt IL-2 (EC50)	6.58 relative to wt IL-2 (EC50)					human IL-2 mutein Q126N (ligand) not shown
2.19 relative to wt IL-2 (EC50)	19.9 relative to wt IL-2 (EC50)					human IL-2 mutein Q126M (ligand) not shown
0.739 relative to wt IL-2 (EC50)	0.0222 relative to wt IL-2 (EC50)					human IL-2 mutein Q126H (ligand) not shown
3e-05 relative to wt IL-2 (EC50)	0.0001 relative to wt IL-2 (EC50)					human IL-2 mutein Q126T (ligand) not shown
0.00302 relative to wt IL-2 (EC50)	1.01 relative to wt IL-2 (EC50)					human IL-2 mutein Q126V (ligand) not shown
3e-05 relative to wt IL-2 (EC50)	0.001 relative to wt IL-2 (EC50)					human IL-2 mutein Q126I (ligand) not shown
0.00103 relative to wt IL-2 (EC50)	0.0342 relative to wt IL-2 (EC50)					human IL-2 mutein Q126S (ligand) not shown
0.2 relative to wt IL-2 (EC50)	0.2 relative to wt IL-2 (EC50)					human IL-2 mutein Q126W (ligand) not shown
1 relative to wt IL-2 (EC50)	1 relative to wt IL-2 (EC50)	~0.1	~0.1	~0.15	~0.15	wild-type human IL-2 (ligand) not shown
0.0885 relative to wt IL-2 (EC50)	0.885 relative to wt IL-2 (EC50)					human IL-2 mutein Q126Y (ligand) not shown
0.00556 relative to wt IL-2 (EC50)	0.556 relative to wt IL-2 (EC50)					human IL-2 mutein Q126G (ligand) not shown
0.364 relative to wt IL-2 (EC50)	4.03 relative to wt IL-2 (EC50)					human IL-2 mutein Q126R (ligand) not shown
0.00011 relative to wt IL-2 (EC50)	0.00032 relative to wt IL-2 (EC50)					human IL-2 mutein Q126P (ligand) not shown
